Source: PubChem BioAssay AID485290 (National Center for Advancing Translational Sciences (NCATS), 2010)
The campaign covered roughly 350,000 compounds. About 990 (0.28%) were called active. Inconclusive means that the source gave no clear call. Such entries were picked first, then a sample of the others. The call rests on the fitted dose curve; in most records, active means well fitted inhibition curve with a large enough effect; inconclusive means small, poorly fitted or top-dose-only effect; inactive means no such curve, though single readings can be large or run the other way. A potency beside an inconclusive call is a rough fit, not a confirmed value.

Biological target: Tyrosyl-DNA phosphodiesterase 1 (Homo sapiens) (UniProt Q9NUW8)
Chain of UniProt Q9NUW8 (Q9NUW8 whole entry, looked up): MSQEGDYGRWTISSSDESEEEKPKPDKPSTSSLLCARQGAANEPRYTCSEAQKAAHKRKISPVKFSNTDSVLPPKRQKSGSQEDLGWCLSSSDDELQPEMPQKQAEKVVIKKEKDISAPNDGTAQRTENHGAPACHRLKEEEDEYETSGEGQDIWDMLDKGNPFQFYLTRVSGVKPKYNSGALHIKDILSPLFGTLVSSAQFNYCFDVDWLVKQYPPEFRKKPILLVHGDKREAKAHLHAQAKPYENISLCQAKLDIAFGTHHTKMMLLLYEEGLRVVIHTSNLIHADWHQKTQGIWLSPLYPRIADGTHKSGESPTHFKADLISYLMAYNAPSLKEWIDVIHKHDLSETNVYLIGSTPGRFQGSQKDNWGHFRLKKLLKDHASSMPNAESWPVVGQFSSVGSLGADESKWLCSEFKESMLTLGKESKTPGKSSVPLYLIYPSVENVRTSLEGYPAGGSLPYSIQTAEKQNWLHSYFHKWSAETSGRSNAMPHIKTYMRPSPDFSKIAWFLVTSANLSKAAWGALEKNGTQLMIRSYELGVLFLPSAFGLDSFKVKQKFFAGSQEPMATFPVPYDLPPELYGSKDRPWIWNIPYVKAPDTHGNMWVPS
Assay: qHTS Assay for Inhibitors of Tyrosyl-DNA Phosphodiesterase (TDP1); further: nearly all actives have a fitted effect of over 40% in size
Conditions: recombinant TDP1, AlphaScreen DNA substrate cleavage; activity change, negative = inhibition: at 130 µM (top of the series) unless noted
Method in brief: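 Signal: AlphaScreen proximity between streptavidin donor and anti-FITC acceptor beads on intact substrate. Reaction: Tdp1 1 nM, substrate 15 nM final, 5 min RT after 15 min compound preincubation.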
On the % scale 0 is the no-effect control and ±100 the full control effect; potency means the concentration at half of the fitted maximal effect; tags describe the fitted curve by direction and shape.

Potency, inconclusive:
CCOc1ccc(N2C(=O)C3C(c4ccccc4)=NN(c4ccccc4)C3C2=O)cc1 (stereo not drawn) 5.01 µM [inhibitor, full curve, poor fit], CSc1ncccc1C(=O)OCC(=O)c1cccc(Br)c1 28.2 µM [inhibitor, single point], CC(=O)NCc1ccc(C(=O)COC(=O)COc2ccccc2)s1 44.7 µM [inhibitor, partial curve], Cc1ccc(C(=O)N/N=C(\CC(C)C)c2ccccc2)cc1 100 µM [inhibitor, single point], O=S(=O)(N/N=C\c1ccc(-c2ccccc2Cl)o1)c1ccccc1 89.1 µM [inhibitor, single point], Cc1ccc(C(=O)/C=C/Nc2ccc(S(=O)(=O)Nc3cc(C)nc(C)n3)cc2)cc1 28.2 µM [inhibitor, full curve], COc1ccc(C2C(C(C)=O)=C(O)C(=O)N2Cc2cccnc2)cc1 (stereo not drawn) 11.2 µM [inhibitor, full curve, poor fit], O=C(COC(=O)c1ccc(F)cc1F)Nc1ncccn1 25.1 µM [inhibitor, full curve], O=C(O)CCCCCn1c(O)c(C=C2N=c3ccccc3=N2)sc1=S 89.1 µM [inhibitor, single point], CC([NH2+][O-])C(C)(C)NO (stereo not drawn) 1.12 µM [inhibitor, full curve, poor fit], CCn1c(SCC(=O)N(C(C)C)C(C)C)nnc1-c1cc2ccccc2cc1O 11.2 µM [inhibitor, partial curve, poor fit], Cc1ccc(C(=O)Nc2ccc(Oc3ccc(C(=O)O)c(C(=O)O)c3)cc2)cc1C 17.8 µM [inhibitor, full curve], CCOc1ccc(N2CC(O)=C(c3nc4ccccc4c(=O)[nH]3)C2=N)cc1 3.16 µM [inhibitor, full curve], O=C(O)CSc1nc2ccc(NC(=O)COc3ccc(Cl)cc3)cc2s1 3.55 µM [inhibitor, full curve], Brc1ccc(-c2noc(COc3ccc4ccccc4c3)n2)o1 22.4 µM [inhibitor, single point], Cc1c(-n2c(O)c(C3=c4ccccc4=NC3=O)sc2=O)c(=O)n(-c2ccccc2)n1C 31.6 µM [inhibitor, single point], COc1cccc(-c2nnc(NC(=O)Cc3cccs3)s2)c1 31.6 µM [inhibitor, single point], O=C(O)CN(CC(=O)O)Cc1cc2c(-c3ccccc3C(=O)O)c3cc(CN(CC(=O)O)CC(=O)O)c(=O)cc-3oc2cc1O 1.41 µM [inhibitor, partial curve], Clc1ccc(OCc2nnc(-c3ccccc3Br)o2)cc1 7.08 µM [inhibitor, single point], C/C=C\C=C\C(=O)N1CC2(CC(c3cccc(NC(=O)/C(C)=C\C)c3)=NO2)C[C@H]1C(N)=O (stereo partly drawn) 100 µM [inhibitor, single point], O=C(NC1CCCC1)c1cc(-c2ccc(F)cc2)on1 89.1 µM [inhibitor, single point], CN(C)S(=O)(=O)c1ccc(S(=O)(=O)N2CCCC(C(=O)NC3CC3)C2)cc1 (stereo not drawn) 7.94 µM [inhibitor, full curve, poor fit], O=C(Cn1cnc2ccccc21)N/N=C/c1ccco1 44.7 µM [inhibitor, partial curve, poor fit], COc1ccc(S(=O)(=O)N2CCCCCC2)cc1NC(=O)Cc1n[nH]c(=O)c2ccccc12 100 µM [inhibitor, single point], CN(C)c1ccc(S(=O)(=O)N(C)C)cc1NC(=O)Cc1cccc2ccccc12 0.141 µM [inhibitor, full curve, poor fit], O=C(Nc1ccc2oc(-c3ccncc3)nc2c1)c1ccco1 79.4 µM [inhibitor, partial curve], O=c1oc2cc(O)ccc2cc1-c1nnc(Nc2ccccc2F)s1 3.16 µM [inhibitor, single point], S=c1[nH]ccn1-c1ccc(Cl)cc1 2.82 µM [inhibitor, partial curve]

Potency, active:
COc1ccc(NC(=O)CN2C(=O)S/C(=C/c3cccn3-c3ccc(C(=O)O)cc3)C2=O)cc1 20 µM, O=C1CCCN1C(=O)CSc1ncnc2sccc12 50.1 µM, C=CC1=C(C(=O)O)N2C(=O)[C@@H](NC(=O)/C(=N\OCC(=O)O)c3csc(N)n3)[C@H]2SC1 14.1 µM

Potency, inactive:
COCCN(C(=O)COC(=O)/C=C/c1ccccc1Cl)c1c(N)n(Cc2ccccc2)c(=O)[nH]c1=O, COC(=O)c1cn(C(=O)/C=C/c2ccc(OC)c(OC)c2)c2ccccc12, Cc1cc([N+](=O)[O-])nn1CC(=O)Nc1ccc(F)cc1, Cc1ccc(CNC(=O)CS(=O)(=O)c2cn(CC(=O)N3CCOCC3)c3ccccc23)cc1, COc1cc2ccccc2cc1C(=O)N(CCN(C)C)c1nc2c(OC)ccc(OC)c2s1, Cc1cccc(NC(=S)N2CCN(S(=O)(=O)c3ccc(F)cc3)CC2)c1, Cn1ncc2c(N3CCN(c4ccccc4F)CC3)ncnc21, CC(C)c1nc2ccc(C(=O)NC(C)c3ccccc3)cc2o1 (stereo not drawn), O=C(CSc1nc2c(cnn2-c2ccccc2)c(=O)[nH]1)N1N=C(c2cccs2)CC1c1ccc(F)cc1 (stereo not drawn), Cc1cc([N+](=O)[O-])nn1Cc1ccc(C(=O)N/N=C/c2ccc(F)cc2)cc1, N#Cc1c(-c2ccccc2)cc(-c2ccccc2)nc1SCC(=O)NCC(=O)O

Activity change, negative = inhibition, inactive:
Cc1ccc2nc(N3CCN(c4cccc(C)c4C)CC3)c3nncn3c2c1 -4.25% [at 12.3 µM]
